Assay results from PubChem BioAssay AID2546 (National Center for Advancing Translational Sciences (NCATS), 2010).
The whole screen tested about 310,000 compounds, of which about 11,000 (3.5%) were called active. The shares of active, inactive and inconclusive entries below differ from those in the screen. Calls follow the shape of the dose curve; as a rule, active = well fitted inhibition curve with a large enough effect; inconclusive = small, poorly fitted or top-dose-only effect, or effect the other way; inactive = flat fitted curve, though single readings scatter. No potency is given beside an inconclusive call; the fits are too rough.

experiment: VP16 counterscreen qHTS for inhibitors of ROR gamma transcriptional activity; settings: Drosophila S2 Gal4-VP16 UAS-luciferase, luminescence, 20 h; series mostly up to 53.6 µM;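 also: Gal4-VP16 expression switched on by copper sulfate through the metallothionein promoter; nearly all actives have a fitted effect of over 50% in size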
Potency is read from the fitted curve at half-maximal effect; tags tell the direction and shape of the fitted curve.

Question: Which Potency does the source give for `O=C(Nc1ccc2c(c1)OCO2)c1cc(-c2ccc(O)cc2)on1` here?
Answer: inconclusive [inhibitor, partial curve]

Question: With `CCC(C)c1ccc(NC(=O)COC(=O)C2=COCCO2)cc1` (stereo unspecified) as the compound, how does the Potency read?
Answer: inconclusive [activator, single point]

Question: Which Potency does the source give for `CCOC(=O)c1c(C)n(-c2ccccc2)c2ccc(O)c(CN(C)C)c12` here?
Answer: inactive

Question: With `CC(C)N(C(C)C)S(=O)(=O)c1ccc(NN)nc1` as the compound, how does the Potency read?
Answer: inconclusive [inhibitor, single point]

Question: With `O=C(COC(=O)COc1ccccc1[N+](=O)[O-])Nc1ccc(S(=O)(=O)N2CCCCC2)cc1` as the compound, how does the Potency read?
Answer: inactive

Question: For `Cc1cc(C)c2c(n1)SCC(=O)N2CC(=O)Nc1ccccc1Cl`, which Potency is on record?
Answer: inconclusive [inhibitor, single point]

Question: With `Cc1cnc(N2C(=O)c3ccc([N+](=O)[O-])cc3C2=O)s1` as the compound, how does the Potency read?
Answer: inactive

Question: With `CC1CCC/C(=C\Nc2ccc(C(=O)O)cc2)C1=O` (stereo unspecified) as the compound, how does the Potency read?
Answer: inconclusive [inhibitor, partial curve]

Question: Which Potency does the source give for `COCCCNC(=S)NC(=O)c1ccc(C)cc1` here?
Answer: inconclusive [inhibitor, single point]

Question: With `O=C(NC(NNc1ccc([N+](=O)[O-])cc1)(C(F)(F)F)C(F)(F)F)c1ccc(F)cc1` as the compound, how does the Potency read?
Answer: inconclusive [inhibitor, single point]

Question: For `OCCN1CCN(CC/C=C2/c3ccccc3Sc3ccc(C(F)(F)F)cc32)CC1`, which Potency is on record?
Answer: inconclusive [inhibitor, single point]

Question: For `COc1ccc([C@]23Cc4ccccc4C(O2)c2c(cc(C)n(Cc4ccccc4)c2=O)O3)cc1`, which Potency is on record?
Answer: inconclusive [inhibitor, single point]

Question: For `COc1cccc(CNS(=O)(=O)c2ccc(S(=O)(=O)N3CCCC3)cc2)c1`, which Potency is on record?
Answer: inconclusive [inhibitor, single point]

Question: Which Potency does the source give for `COc1ccc(NC(=O)c2ccc(Cl)nc2)cc1S(=O)(=O)N1CCCCC1` here?
Answer: inactive

Question: Which Potency does the source give for `O=c1c2ccccc2cnn1Cc1n[nH]c(=S)n1-c1cc(Cl)cc(Cl)c1` here?
Answer: inconclusive [inhibitor, single point]

Question: Which Potency does the source give for `Cc1ccc(Nc2nnc(SCC(=O)c3ccc(Br)s3)s2)c(C)c1` here?
Answer: inconclusive [inhibitor, single point]

Question: For `COc1cc(C(F)(F)F)ccc1C(=O)NCCc1ccco1`, which Potency is on record?
Answer: inactive

Question: With `COc1ccc(/C=C/C(=O)Nc2ccccc2Cl)cc1S(=O)(=O)N1CCOCC1` as the compound, how does the Potency read?
Answer: inactive

Question: For `CN(c1ccc(C(=O)N2CCN(Cc3ccc4c(c3)OCO4)CC2)cc1)S(=O)(=O)c1ccccc1`, which Potency is on record?
Answer: inactive

Question: Which Potency does the source give for `Cc1cccc(OC(=O)n2c(=S)oc3cc(Cl)ccc32)c1` here?
Answer: inconclusive [inhibitor, single point]

Question: For `CCCC(=O)Nc1nc2ccc(OC)cc2s1`, which Potency is on record?
Answer: inconclusive [inhibitor, single point]

Question: With `CCNc1ncc2ncc(=O)n(Cc3cccc(OC)c3)c2n1` as the compound, how does the Potency read?
Answer: active: 11.2 µM

Question: With `COc1cccc(C(=O)OCn2nnc3ccccc3c2=O)c1` as the compound, how does the Potency read?
Answer: inconclusive [inhibitor, single point]

Question: With `CC(C)c1nc(N2CCN(C(=O)c3ccco3)CC2)c(C#N)c2c1COC(C)(C)C2` as the compound, how does the Potency read?
Answer: inconclusive [inhibitor, single point]

Question: With `COc1ccc(NC(=S)NCCc2c[nH]c3ccccc23)c(OC)c1` as the compound, how does the Potency read?
Answer: inconclusive [inhibitor, single point]

Question: For `CCc1ccc(C(=O)CSc2nc3ccccc3c(=O)[nH]2)cc1`, which Potency is on record?
Answer: inconclusive [inhibitor, single point]

Question: With `O=C1OCc2cc(-n3cccc3)ccc21` as the compound, how does the Potency read?
Answer: inconclusive [activator, partial curve]

Question: For `O=C(NN=C(Cc1ccccc1)Cc1ccccc1)c1ccc(F)cc1`, which Potency is on record?
Answer: inconclusive [inhibitor, single point]

Question: With `O=C(CCCSc1nc2ccccc2s1)NCc1ccco1` as the compound, how does the Potency read?
Answer: active: 11.2 µM

Question: With `N/C(Cc1ccc([N+](=O)[O-])cc1)=N\OC(=O)c1ccc([N+](=O)[O-])cc1` as the compound, how does the Potency read?
Answer: inactive

Question: With `COc1cc(C)c(NC(=S)Nc2cccc(Cl)c2C)cc1OC` as the compound, how does the Potency read?
Answer: inconclusive [inhibitor, single point]

Question: With `CCCSc1nnc(CSc2nc3ccccc3s2)n1-c1ccccc1` as the compound, how does the Potency read?
Answer: inconclusive [inhibitor, single point]

Question: Which Potency does the source give for `O=C(CC1(O)C(=O)Nc2cc(Cl)cc(Cl)c21)c1ccccc1O` (stereo unspecified) here?
Answer: inconclusive [inhibitor, single point]

Question: Which Potency does the source give for `C/C(=N\NC(=O)c1cc2ccccc2cc1O)c1ccc(C)o1` here?
Answer: inconclusive [inhibitor, single point]

Question: Which Potency does the source give for `O=C(CCN1C(=O)c2ccccc2C1=O)NC(=S)Nc1ccccc1Cl` here?
Answer: inconclusive [inhibitor, single point]

Question: Which Potency does the source give for `Cn1c(=O)c(=O)n(C)c2cc(S(=O)(=O)N3CCCC3C(=O)Nc3ccccc3F)ccc21` (stereo unspecified) here?
Answer: inactive

Question: For `Cc1nonc1C1CCCN1C(=O)c1cc(COc2cccc(C(F)(F)F)c2)on1` (stereo unspecified), which Potency is on record?
Answer: inconclusive [inhibitor, single point]

Question: Which Potency does the source give for `COC(=O)c1ccc(NC(=S)NC2CCCCC2C)cc1` (stereo unspecified) here?
Answer: active: 3.55 µM

Question: Which Potency does the source give for `CCOC(=O)c1[nH]c(COC(=O)C2CC(=O)N(Cc3ccccc3)C2)c(C(=O)OCC)c1C` (stereo unspecified) here?
Answer: inactive

Question: For `O=C(N/N=C/c1ccccc1OC(=O)c1ccc2c(c1)OCO2)c1cccc(F)c1`, which Potency is on record?
Answer: inconclusive [inhibitor, single point]

Question: For `COc1ccc(S(=O)(=O)N(C)C)cc1NC(=O)CCNC(=O)c1ccccc1OC`, which Potency is on record?
Answer: inactive

Question: For `COc1ccc(OC)c(NC(=O)Nc2cc(NC(=O)Nc3cc(OC)ccc3OC)c(C)nc2C)c1`, which Potency is on record?
Answer: inconclusive [inhibitor, single point]

Question: With `Cc1ccc(S(=O)(=O)N2CCCCC2)cc1NC(=O)COC(=O)c1ccc2c(c1)OCO2` as the compound, how does the Potency read?
Answer: inconclusive [activator, single point]

Question: For `Cc1ccc(S(=O)(=O)N[C@@H](CC(C)C)C(=O)N2CCC(C(=O)N[C@H](C(=O)O)C(C)C)CC2)cc1`, which Potency is on record?
Answer: inactive

Question: Which Potency does the source give for `Cc1ccc2nc(N(CCCN(C)C)C(=O)c3ccc(S(=O)(=O)N4CCc5ccccc5C4)cc3)sc2c1` here?
Answer: active: 12.6 µM

Question: Which Potency does the source give for `O=C(Cc1cccs1)N1CCN=C1SCc1ccc(F)cc1` here?
Answer: inconclusive [inhibitor, single point]

Question: For `Cc1ccc(C(=O)CCS(=O)(=O)c2ccc(Cl)cc2)cc1`, which Potency is on record?
Answer: inconclusive [inhibitor, single point]

Question: With `COc1ccccc1CN1CCCC(CN(CCN(C)C)C(=O)c2ccc(C)cc2)C1` (stereo unspecified) as the compound, how does the Potency read?
Answer: inactive

Question: For `Cc1scc(C(=O)N/N=C/c2ccc([N+](=O)[O-])o2)c1C`, which Potency is on record?
Answer: active: 7.08 µM

Question: Which Potency does the source give for `CCC(C(=O)N1CCOCC1)n1nc(C)c2sc3ccccc3c2c1=O` (stereo unspecified) here?
Answer: inactive

Question: Which Potency does the source give for `COc1ccc(NC2=NC(=S)N(c3ccccc3C)C23CCCCC3)cc1` here?
Answer: inconclusive [inhibitor, single point]

Question: For `Cc1ccc2oc(-c3cccc(NC(=O)c4cc(-n5cnnc5)ccc4Cl)c3)nc2c1`, which Potency is on record?
Answer: inconclusive [inhibitor, single point]

Question: With `CC[C@H](C)[C@H](NC(=O)CNC(=O)[C@H](CCCNC(=N)N)NC(=O)CNC(=O)[C@@H](NC(=O)[C@H](Cc1ccc(O)cc1)NC(=O)[C@H](Cc1c[nH]c2ccccc12)NC(=O)[C@H](C)NC(=O)[C@@H]1CCCN1C(=O)[C@H](CC(N)=O)NC(=O)[C@@H](NC(=O)[C@H](CC(=O)O)NC(=O)[C@@H]1CCCN1C(=O)[C@@H](N)[C@@H](C)O)[C@@H](C)CC)[C@@H](C)O)C(=O)N[C@@H](CCCNC(=N)N)C(=O)N1CCC[C@H]1C(=O)N[C@H](C(=O)NCC(=O)N[C@@H](CCCNC(=N)N)C(=O)N[C@@H](Cc1ccccc1)C(N)=O)C(C)C` as the compound, how does the Potency read?
Answer: inactive

Question: For `CC1=NN(C(=O)c2csc(C(C)C)c2)C(O)(C(F)(F)F)C1` (stereo unspecified), which Potency is on record?
Answer: active: 4.47 µM

Question: Which Potency does the source give for `O=C(C1CCN(c2ncnc3c2nc2n3CCCCC2)CC1)N1CCN(c2cccc(Cl)c2)CC1` here?
Answer: inconclusive [inhibitor, single point]

Question: Which Potency does the source give for `COc1ccc(C(NC(=O)C(C)C)c2ccc3cccnc3c2O)cc1` (stereo unspecified) here?
Answer: active: 6.31 µM

Question: Which Potency does the source give for `Clc1ccc(/C=N/Nc2ncnc3ccccc23)cc1Cl` here?
Answer: active: 3.55 µM

Question: With `O=C(/C=C/c1ccc(O)c(O)c1)c1ccc(S(=O)(=O)N2CCCCCC2)cc1` as the compound, how does the Potency read?
Answer: inconclusive [inhibitor, single point]

Question: For `COc1cccc(-c2nc(-c3ccccc3)no2)c1`, which Potency is on record?
Answer: inconclusive [inhibitor, single point]

Question: For `Cc1ccc(C)c(SCC(=O)Nc2cccc(S(=O)(=O)NC3=NCCCCC3)c2)c1`, which Potency is on record?
Answer: inactive

Question: For `Cc1nc(C)c(-c2ccc(SCC(=O)Nc3cccc(Cl)c3)nn2)s1`, which Potency is on record?
Answer: inconclusive [activator, single point]

Question: Which Potency does the source give for `Cc1ccc(NC(=O)N2CCCC2C(=O)NCc2cccs2)cc1` (stereo unspecified) here?
Answer: inconclusive [inhibitor, partial curve]

Question: For `Cc1ccccc1N1CN(Cc2ccco2)CNC1=S`, which Potency is on record?
Answer: inconclusive [inhibitor, single point]

Question: For `Cn1c2ccccc2c(=O)c2ccc(C#Cc3ccccn3)cc21`, which Potency is on record?
Answer: active: 15.8 µM

Question: With `CC1=NN(C(N)=S)C(=O)C1N=Nc1cc(Cl)ccc1Cl` (stereo unspecified) as the compound, how does the Potency read?
Answer: inconclusive [inhibitor, full curve]

Question: Which Potency does the source give for `S=c1nc(-c2ccccc2Cl)[nH][nH]1` here?
Answer: inconclusive [inhibitor, partial curve]
